The values below come from article PMC4336329 (PLoS ONE, 2015).

Each structure is given as a SMILES string. Among all 310,000 compounds or so, about 14,000 (4.5%) showed an effect of 50% or more. The effect is printed as a negative number. The list shows a part of the results.
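Further: peak tail current of the secondary pulse compared with the same well before compound.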

This assay deals with human ether-à-go-go-related gene (hERG) potassium channel (human, UniProt Q12809). Briefly: primary screen, population patch clamp on CHO cells stably expressing hERG.
Sequence of human ether-à-go-go-related gene (hERG) potassium channel (Q12809 whole entry, looked up): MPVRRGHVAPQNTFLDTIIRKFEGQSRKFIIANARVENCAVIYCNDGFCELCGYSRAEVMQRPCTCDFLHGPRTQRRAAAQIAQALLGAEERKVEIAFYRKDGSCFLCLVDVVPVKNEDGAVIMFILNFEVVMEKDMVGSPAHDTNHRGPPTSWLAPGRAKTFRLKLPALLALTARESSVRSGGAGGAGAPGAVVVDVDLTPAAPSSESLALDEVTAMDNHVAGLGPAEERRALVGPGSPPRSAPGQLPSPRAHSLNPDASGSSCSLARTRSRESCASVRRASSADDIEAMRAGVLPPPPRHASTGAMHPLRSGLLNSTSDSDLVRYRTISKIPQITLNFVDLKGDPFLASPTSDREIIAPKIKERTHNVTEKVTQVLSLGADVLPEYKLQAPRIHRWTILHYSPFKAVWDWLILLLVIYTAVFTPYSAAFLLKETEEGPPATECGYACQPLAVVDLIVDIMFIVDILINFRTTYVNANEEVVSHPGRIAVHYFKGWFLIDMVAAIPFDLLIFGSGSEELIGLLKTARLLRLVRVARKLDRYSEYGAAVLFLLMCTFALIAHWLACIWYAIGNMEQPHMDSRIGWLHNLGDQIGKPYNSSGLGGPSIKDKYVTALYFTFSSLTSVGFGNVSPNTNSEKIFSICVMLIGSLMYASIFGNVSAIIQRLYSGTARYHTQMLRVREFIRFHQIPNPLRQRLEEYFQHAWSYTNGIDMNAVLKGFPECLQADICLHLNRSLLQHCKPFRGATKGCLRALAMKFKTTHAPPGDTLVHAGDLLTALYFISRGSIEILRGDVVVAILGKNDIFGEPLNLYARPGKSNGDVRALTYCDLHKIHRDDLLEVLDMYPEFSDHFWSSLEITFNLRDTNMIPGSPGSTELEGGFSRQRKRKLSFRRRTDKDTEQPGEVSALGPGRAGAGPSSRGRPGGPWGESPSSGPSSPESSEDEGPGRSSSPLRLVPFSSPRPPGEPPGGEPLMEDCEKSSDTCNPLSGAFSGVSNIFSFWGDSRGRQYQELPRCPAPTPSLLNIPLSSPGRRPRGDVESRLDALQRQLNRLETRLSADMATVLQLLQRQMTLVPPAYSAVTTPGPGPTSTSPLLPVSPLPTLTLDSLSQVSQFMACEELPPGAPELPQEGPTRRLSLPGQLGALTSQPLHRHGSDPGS
Consider `CC(C(=O)Nc1cccnc1)N1C(=O)C2C3C=CC(C3)C2C1=O` (stereo not drawn), for which the “hERG current change (%, negative = inhibition) at 10uM” value is recorded as 2.28%.

Regarding `Cc1ccc(-c2nn(-c3ccccc3)cc2NC(=O)CCl)cc1`, the “hERG current change (%, negative = inhibition) at 10uM” value is on record as -1.64%.

For the molecule `CCN(C(=O)c1cc2cc(OC)ccc2oc1=O)c1cccc(C)c1`, the “hERG current change (%, negative = inhibition) at 10uM” value is 6.7%.

`CC1CN(S(=O)(=O)c2ccc(Cl)c(S(=O)(=O)N3CC(C)OC(C)C3)c2)CC(C)O1` (stereo not drawn): the “hERG current change (%, negative = inhibition) at 10uM” value worked out at 2.28%.

For the molecule `O=C(O)c1cc(C(F)(F)F)nc2ccccc12`, the “hERG current change (%, negative = inhibition) at 10uM” value was determined as 3.92%.

Regarding `Cc1ccccc1-c1nnn(CC(=O)NCc2ccc3c(c2)OCO3)n1`, the “hERG current change (%, negative = inhibition) at 10uM” value is on record as 27.7%.

Take `COc1ccc2cc(Br)ccc2c1CC(=O)NC(C)(C)C`: the “hERG current change (%, negative = inhibition) at 10uM” value is recorded as 17.3%.

As for `CC1(C)CC(=O)C(C(C2=C(O)CC(C)(C)CC2=O)c2cccc(O)c2)C(=O)C1` (stereo not drawn), the “hERG current change (%, negative = inhibition) at 10uM” value is listed as -8.94%.

Consider `Cc1ccnc(NC(=O)CCc2c[nH]c3ccccc23)c1`, for which the “hERG current change (%, negative = inhibition) at 10uM” value turned out to be 0.429%.

`CCN(Cc1ccccc1)C(c1ccc(C)cc1)c1nnnn1C(C)(C)C` (stereo not drawn): the “hERG current change (%, negative = inhibition) at 10uM” value stood at 5.54%.

For the molecule `Cc1oc2ccccc2c1-c1cn2c(n1)SCC2`, the “hERG current change (%, negative = inhibition) at 10uM” value is recorded as 0.711%.

On to `Cc1ccc(OC(=O)c2ccc3snnc3c2)cc1`, for which the “hERG current change (%, negative = inhibition) at 10uM” value was -5.23%.

On to `CC(=O)Nc1ccc(CNc2ncnc3ccc(-c4c(C)noc4C)cc23)cc1`, for which the “hERG current change (%, negative = inhibition) at 10uM” value is -2.55%.

On to `O=C(O)C1C2CCC(C2)C1C(=O)NCCc1ccc(F)cc1` (stereo not drawn), for which the “hERG current change (%, negative = inhibition) at 10uM” value is 26.2%.

Turning to `O=c1c(-c2ccc3c(c2)OCCO3)c(C(F)(F)F)oc2cc(O)cc(O)c12`, the “hERG current change (%, negative = inhibition) at 10uM” value is -9.07%.

Turning to `O=C(CN1C(=O)COc2ccccc21)Nc1ccc2c(c1)OCCO2`, the “hERG current change (%, negative = inhibition) at 10uM” value is -4.52%.

On to `Cc1ccc(CNC(=O)C2CCCN(S(=O)(=O)c3c(C)noc3C)C2)cc1` (stereo not drawn), for which the “hERG current change (%, negative = inhibition) at 10uM” value was 0.604%.

For `COc1cc(C)cc2oc(=O)c(CC(=O)N3C[C@H]4C[C@@H](C3)c3cccc(=O)n3C4)c(C)c12`, the “hERG current change (%, negative = inhibition) at 10uM” value is -2.54%.

In the case of `O=C(NCCCN1CCCC1=O)C(=O)Nc1cccc(F)c1`, the “hERG current change (%, negative = inhibition) at 10uM” value was -30.1%.

For the molecule `CCOC(=O)c1cc(NC(=O)C2C3C=CC(O3)C2C(=O)O)cc(C(=O)OCC)c1` (stereo not drawn), the “hERG current change (%, negative = inhibition) at 10uM” value is reported as 2.13%.

In the case of `C/C(=N\NC(=O)c1nnn(-c2nonc2N)c1-c1ccc2c(c1)OCO2)c1ccccc1`, the “hERG current change (%, negative = inhibition) at 10uM” value worked out at 5.41%.

Regarding `Cc1ccc(NC(=O)OC(C)CNC(=O)Oc2cccc(C)c2)cc1` (stereo not drawn), the “hERG current change (%, negative = inhibition) at 10uM” value amounted to 25.5%.

`O=C(C1CCCN1S(=O)(=O)c1cccc2cccnc12)N1CCc2ccccc21` (stereo not drawn): the “hERG current change (%, negative = inhibition) at 10uM” value is -31.7%.

As for `Cc1cc(C)n(C(C)n2nc(C)cc2C)n1`, the “hERG current change (%, negative = inhibition) at 10uM” value is 17.9%.
